# The other results are listed elsewhere or left out.
# B1: AFL5 (Aspergillus fumigatus), Q4WB00 (protein)
# chain: MDNFMEMTKKLGHQPELLRLRALDATYDDALEGKLVVAPLDMSEPGKKILDSGTADGTWLRNVRSKQSVPHDYYGSDVEGELFPKDPDGITYFAHSFKDPWPQQYLGFFDLVHIRGSLAGSAPEGPAPVIQNLTTLLKPGGWVQLMEMNAFSPPPNGPAMTDFAKMASEMFTGIGVGDFANNNKSMLEDAGLKNVQEKRVIVNLGKKAKPELHDQSIHGVTGPIVPLTSVARTVKSSFTGEQLDALPARVKEELETEGGQVEMIIAFGQKA
# Legend:
# Experiment in all cases: glycan array binding signal (z-score within array); higher = stronger binding
# Details in all cases: glycan notation: IUPAC condensed, linker removed
# Neu5Ac(a2-6)Gal = biological target: Neu5Ac(a2-6)Gal
# How it was run: (§1)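 Glycan array data came from 3228 arrays in the Consortium for Functional Glycomics database, and only arrays with an available protein sequence were kept. Glycan names were put into IUPAC-condensed notation, and columns mapping to the same glycan were averaged. The binding signal is a within-array Z-score, averaged across arrays of one protein sequence run at different concentrations or buffers and across linkers. A negative Z-score can be read as non-binding.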
# [1] = biological target: Neu5Ac(a2-6)Gal(b1-3)GlcNAc(b1-3)[Gal(b1-4)GlcNAc(b1-6)]Gal(b1-4)Glc
# How it was run: as §1
# Neu5Ac(a2-6)Gal(b1-4)Glc = biological target: Neu5Ac(a2-6)Gal(b1-4)Glc
# How it was run: as §1
# [2] = biological target: Neu5Ac(a2-6)Gal(b1-4)GlcNAc
# How it was run: as §1
# [3] = biological target: Neu5Ac(a2-6)Gal(b1-4)GlcNAc(b1-2)Man
# How it was run: as §1
# [4] = biological target: Neu5Ac(a2-6)Gal(b1-4)GlcNAc(b1-2)Man(a1-3)Man(b1-4)GlcNAc(b1-4)GlcNAc
# How it was run: as §1
# [5] = biological target: Neu5Ac(a2-6)Gal(b1-4)GlcNAc(b1-2)Man(a1-3)[Gal(b1-4)GlcNAc(b1-2)Man(a1-6)]Man(b1-4)GlcNAc(b1-4)GlcNAc
# How it was run: as §1
# [6] = biological target: Neu5Ac(a2-6)Gal(b1-4)GlcNAc(b1-2)Man(a1-3)[GlcNAc(b1-2)Man(a1-6)]Man(b1-4)GlcNAc(b1-4)GlcNAc
# How it was run: as §1
# [7] = biological target: Neu5Ac(a2-6)Gal(b1-4)GlcNAc(b1-2)Man(a1-3)[GlcNAc(b1-4)][Neu5Ac(a2-6)Gal(b1-4)GlcNAc(b1-2)Man(a1-6)]Man(b1-4)GlcNAc(b1-4)GlcNAc
# How it was run: as §1
# [8] = biological target: Neu5Ac(a2-6)Gal(b1-4)GlcNAc(b1-2)Man(a1-3)[Man(a1-6)]Man(b1-4)GlcNAc(b1-4)GlcNAc
# How it was run: as §1
# [9] = biological target: Neu5Ac(a2-6)Gal(b1-4)GlcNAc(b1-2)Man(a1-3)[Neu5Ac(a2-3)Gal(b1-4)GlcNAc(b1-2)Man(a1-6)]Man(b1-4)GlcNAc(b1-4)GlcNAc
# How it was run: as §1
# [10] = biological target: Neu5Ac(a2-6)Gal(b1-4)GlcNAc(b1-2)Man(a1-3)[Neu5Ac(a2-6)Gal(b1-4)GlcNAc(b1-2)Man(a1-6)]Man(b1-4)GlcNAc(b1-4)GlcNAc
# How it was run: as §1
# [11] = biological target: Neu5Ac(a2-6)Gal(b1-4)GlcNAc(b1-2)Man(a1-3)[Neu5Ac(a2-6)Gal(b1-4)GlcNAc(b1-2)Man(a1-6)]Man(b1-4)GlcNAc(b1-4)[Fuc(a1-6)]GlcNAc
# How it was run: as §1
# [12] = biological target: Neu5Ac(a2-6)Gal(b1-4)GlcNAc(b1-2)Man(a1-6)Man(b1-4)GlcNAc(b1-4)GlcNAc
# How it was run: as §1
# [13] = biological target: Neu5Ac(a2-6)Gal(b1-4)GlcNAc(b1-2)Man(a1-6)[Gal(b1-4)GlcNAc(b1-2)Man(a1-3)]Man(b1-4)GlcNAc(b1-4)GlcNAc
# How it was run: as §1
# [14] = biological target: Neu5Ac(a2-6)Gal(b1-4)GlcNAc(b1-2)Man(a1-6)[GlcNAc(b1-2)Man(a1-3)]Man(b1-4)GlcNAc(b1-4)GlcNAc
# How it was run: as §1
# [15] = biological target: Neu5Ac(a2-6)Gal(b1-4)GlcNAc(b1-2)Man(a1-6)[Man(a1-3)]Man(b1-4)GlcNAc(b1-4)GlcNAc
# How it was run: as §1
# [16] = biological target: Neu5Ac(a2-6)Gal(b1-4)GlcNAc(b1-2)[Neu5Ac(a2-6)Gal(b1-4)GlcNAc(b1-4)]Man(a1-3)[GlcNAc(b1-4)][Neu5Ac(a2-6)Gal(b1-4)GlcNAc(b1-2)[Neu5Ac(a2-6)Gal(b1-4)GlcNAc(b1-6)]Man(a1-6)]Man(b1-4)GlcNAc(b1-4)GlcNAc
# How it was run: as §1
# [17] = biological target: Neu5Ac(a2-6)Gal(b1-4)GlcNAc(b1-2)[Neu5Ac(a2-6)Gal(b1-4)GlcNAc(b1-4)]Man(a1-3)[GlcNAc(b1-4)][Neu5Ac(a2-6)Gal(b1-4)GlcNAc(b1-4)Man(a1-6)]Man(b1-4)GlcNAc(b1-4)GlcNAc
# How it was run: as §1
# [18] = biological target: Neu5Ac(a2-6)Gal(b1-4)GlcNAc(b1-2)[Neu5Ac(a2-6)Gal(b1-4)GlcNAc(b1-6)]Man(a1-6)[Neu5Ac(a2-6)Gal(b1-4)GlcNAc(b1-2)Man(a1-3)][GlcNAc(b1-4)]Man(b1-4)GlcNAc(b1-4)GlcNAc
# How it was run: as §1
# [19] = biological target: Neu5Ac(a2-6)Gal(b1-4)GlcNAc(b1-3)Gal(b1-3)GlcNAc
# How it was run: as §1
# [20] = biological target: Neu5Ac(a2-6)Gal(b1-4)GlcNAc(b1-3)Gal(b1-4)GlcNAc
# How it was run: as §1
# [21] = biological target: Neu5Ac(a2-6)Gal(b1-4)GlcNAc(b1-3)Gal(b1-4)GlcNAc(b1-2)Man(a1-3)[Neu5Ac(a2-6)Gal(b1-4)GlcNAc(b1-3)Gal(b1-4)GlcNAc(b1-2)Man(a1-6)]GalNAc
# How it was run: as §1
# [22] = biological target: Neu5Ac(a2-6)Gal(b1-4)GlcNAc(b1-3)Gal(b1-4)GlcNAc(b1-3)Gal(b1-4)GlcNAc
# How it was run: as §1
# [23] = biological target: Neu5Ac(a2-6)Gal(b1-4)GlcNAc(b1-3)Gal(b1-4)GlcNAc(b1-3)Gal(b1-4)GlcNAc(b1-2)Man(a1-3)[Neu5Ac(a2-6)Gal(b1-4)GlcNAc(b1-3)Gal(b1-4)GlcNAc(b1-3)Gal(b1-4)GlcNAc(b1-2)Man(a1-6)]GalNAc
# How it was run: as §1
# [24] = biological target: Neu5Ac(a2-6)Gal(b1-4)GlcNAc(b1-3)Gal(b1-4)GlcNAc(b1-3)GalNAc
# How it was run: as §1
# [25] = biological target: Neu5Ac(a2-6)Gal(b1-4)GlcNAc(b1-3)Gal(b1-4)GlcNAc(b1-3)[Neu5Ac(a2-6)Gal(b1-4)GlcNAc(b1-3)Gal(b1-4)GlcNAc(b1-6)]GalNAc
# How it was run: as §1
# [26] = biological target: Neu5Ac(a2-6)Gal(b1-4)GlcNAc(b1-3)Gal(b1-4)GlcNAc(b1-6)[Gal(b1-3)]GalNAc
# How it was run: as §1
# [27] = biological target: Neu5Ac(a2-6)Gal(b1-4)GlcNAc(b1-3)Gal(b1-4)[Fuc(a1-3)]GlcNAc(b1-3)Gal(b1-4)[Fuc(a1-3)]GlcNAc
# How it was run: as §1
# [28] = biological target: Neu5Ac(a2-6)Gal(b1-4)GlcNAc(b1-3)GalNAc
# How it was run: as §1
# [29] = biological target: Neu5Ac(a2-6)Gal(b1-4)GlcNAc(b1-3)[Neu5Ac(a2-6)Gal(b1-4)GlcNAc(b1-6)]GalNAc
# How it was run: as §1
# [30] = biological target: Neu5Ac(a2-6)Gal(b1-4)GlcNAc(b1-6)GalNAc
# How it was run: as §1
# [31] = biological target: Neu5Ac(a2-6)Gal(b1-4)GlcNAc(b1-6)[Gal(b1-3)GlcNAc(b1-3)]Gal(b1-4)Glc
# How it was run: as §1
# [32] = biological target: Neu5Ac(a2-6)Gal(b1-4)GlcNAc(b1-6)[Gal(b1-3)]GalNAc
# How it was run: as §1
# [33] = biological target: Neu5Ac(a2-6)Gal(b1-4)GlcNAc6S
# How it was run: as §1
# Neu5Ac(a2-6)GalNAc = biological target: Neu5Ac(a2-6)GalNAc
# How it was run: as §1
# [34] = biological target: Neu5Ac(a2-6)GalNAc(b1-4)GlcNAc
# How it was run: as §1
# [35] = biological target: Neu5Ac(a2-6)GalNAc(b1-4)GlcNAc6S
# How it was run: as §1
binder,measurement,setting,value
B1,glycan array binding signal (z-score),Neu5Ac(a2-6)Gal,-0.303
same,glycan array binding signal (z-score),[1],-0.394
same,glycan array binding signal (z-score),Neu5Ac(a2-6)Gal(b1-4)Glc,-0.26
same,glycan array binding signal (z-score),[2],-0.288
same,glycan array binding signal (z-score),[3],-0.154
same,glycan array binding signal (z-score),[4],-0.037
same,glycan array binding signal (z-score),[5],0.333
same,glycan array binding signal (z-score),[6],0.268
same,glycan array binding signal (z-score),[7],-0.373
same,glycan array binding signal (z-score),[8],-0.084
same,glycan array binding signal (z-score),[9],0.04
same,glycan array binding signal (z-score),[10],1.03
same,glycan array binding signal (z-score),[11],0.123
same,glycan array binding signal (z-score),[12],-0.018
same,glycan array binding signal (z-score),[13],0.02
same,glycan array binding signal (z-score),[14],-0.146
same,glycan array binding signal (z-score),[15],-0.379
same,glycan array binding signal (z-score),[16],-0.169
same,glycan array binding signal (z-score),[17],0.082
same,glycan array binding signal (z-score),[18],-0.153
same,glycan array binding signal (z-score),[19],-0.045
same,glycan array binding signal (z-score),[20],-0.438
same,glycan array binding signal (z-score),[21],0.677
same,glycan array binding signal (z-score),[22],0.08
same,glycan array binding signal (z-score),[23],2.17
same,glycan array binding signal (z-score),[24],-0.298
same,glycan array binding signal (z-score),[25],0.005
same,glycan array binding signal (z-score),[26],0.362
same,glycan array binding signal (z-score),[27],-0.222
same,glycan array binding signal (z-score),[28],-0.271
same,glycan array binding signal (z-score),[29],0.013
same,glycan array binding signal (z-score),[30],0.281
same,glycan array binding signal (z-score),[31],0.021
same,glycan array binding signal (z-score),[32],0.023
same,glycan array binding signal (z-score),[33],-0.448
same,glycan array binding signal (z-score),Neu5Ac(a2-6)GalNAc,-0.731
same,glycan array binding signal (z-score),[34],-0.664
same,glycan array binding signal (z-score),[35],0.024

# From the supplement of paper PMC8728848
